Laboratory results from the supplement of paper PMC3334620.
The full ranking holds about 33,000 sequences; the median of “E-score (-0.5 to 0.5)” is about -0.035, and the highest 2% start at about 0.34. The list shows a part of the results.

target: T1, Mot3 (UniProt P54785); test: PBM E-score (8-mer binding enrichment) (E-score (-0.5 to 0.5)); higher = stronger / more preferred TF binding; most listed sequences are background and not binding sites; conditions: protein concentration: 200 nM; construct: GST-full length
T1 sequence: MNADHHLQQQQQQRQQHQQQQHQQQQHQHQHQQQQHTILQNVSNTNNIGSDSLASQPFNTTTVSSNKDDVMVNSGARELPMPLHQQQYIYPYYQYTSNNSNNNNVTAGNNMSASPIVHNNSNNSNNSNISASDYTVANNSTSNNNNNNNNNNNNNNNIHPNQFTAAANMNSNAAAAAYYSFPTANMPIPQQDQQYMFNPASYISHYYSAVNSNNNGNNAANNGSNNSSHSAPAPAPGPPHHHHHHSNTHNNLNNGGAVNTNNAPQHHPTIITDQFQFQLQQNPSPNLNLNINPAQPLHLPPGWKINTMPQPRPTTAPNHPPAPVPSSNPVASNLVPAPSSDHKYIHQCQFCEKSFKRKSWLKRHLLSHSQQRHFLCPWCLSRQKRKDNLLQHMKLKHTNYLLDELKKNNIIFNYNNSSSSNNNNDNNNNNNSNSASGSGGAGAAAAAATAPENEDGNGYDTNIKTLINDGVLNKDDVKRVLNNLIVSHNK
Method: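 Universal 'all 10-mer' protein binding microarrays (Agilent AMADID 015681) probed with GST-tagged S. cerevisiae TFs (full-length or DBD) made by in vitro transcription/translation (PURExpress), about 100-200 nM. Bound TF was detected with fluorescent anti-GST. Each ungapped 8-mer (which stands for itself and its reverse complement) is scored by the PBM enrichment score (E-score), a modified Wilcoxon-Mann-Whitney statistic from -0.5 to +0.5, computed with the Universal PBM Analysis Suite. Scale: above 0.35 generally sequence-specific binding.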

Sequence | PBM E-score
AAACGTTG | 0.0415
AACGACTT | -0.255
CTTAGAAG | -0.209
CAATACTA | -0.0095
CAGTCATG | -0.139
AGAGGCTA | -0.231
GTAGGCAA | 0.49
GTTCCTCA | -0.026
AGCAATAG | -0.0253
AACATACA | 0.321
ACCGTGCG | 0.0264
CGGCTTAA | -0.0557
GATCTACC | -0.168
CCCCACAG | 0.0973
ACGTCGTG | 0.114
CACGCTCA | 0.0572
AGGAGACT | -0.202
AACGTTGG | 0.122
CACCAAGA | -0.0614
ATTGGTCC | 0.00839
ATGGCGGA | -0.302
GCGGATAC | 0.0777
ATGTGCGA | -0.0836
CGTGCGCC | 0.042
ATTTTTTG | 0.0963

Sequence | PBM E-score
GCCCAAAA | 0.0762
CCGAACGG | -0.309
CTCCACAA | 0.0493
GGGTAGGA | 0.065
CTAAAGGA | 0.148
AACCCTCC | -0.107
ATAAGTCG | -0.183
AGTGGCAA | -0.144
ATGGACTG | -0.136
CTGAAAGC | 0.0365
AATTTCTC | -0.0417
TCCACCAA | -0.203
AGTTGAAT | 0.0466
AAAGAGCT | -0.0166
CAGCTCGC | -0.0969
CGACAACC | -0.0603
AAGGGATA | -0.0261
AACCAAGA | 0.00054
GCAAGCGA | 0.0905
GAGTACTA | 0.102
GAAATTTC | 0.111
AGGACCGC | -0.169
GGGGGTAC | -0.0474
AGCAAAGA | -0.192
CGACTACA | 0.186

Sequence | PBM E-score
AGCTATAG | -0.2
GACCGATA | -0.172
GAACTGCC | -0.194
ATGGAGTC | -0.155
CCCGATCG | -0.195
ATCTGCGA | -0.104
CTTGGATC | -0.0997
ACGCAACT | 0.0644
AGGGAAAG | -0.0829
GAAGATAA | 0.28
CAAGTCAG | -0.16
AACTTAAG | 0.122
CGGTGGAA | -0.158
CGGAACTA | -0.265
ATTGCTAA | 0.00179
CACATTAG | -0.0252
GAATATCC | -0.0482
GGATATCC | 0.0614
AGACGACT | -0.226
CGCCTGAC | -0.0427
GTCGAGCA | -0.114
ATTCCCTG | -0.0347
ACTGTGGA | -0.0812
AGGGAGGA | -0.197
GATCCGCC | -0.16

Sequence | PBM E-score
AAGCGCAA | 0.0923
AGACCAGA | -0.193
GTAGCTAC | -0.0156
AATGGTCC | -0.129
CCGCCTAG | -0.138
AGCAGTAG | -0.226
GAGGCTGC | -0.233
CGAGCCCC | -0.193
GACTACCA | -0.0944
CCGGGTAA | -0.0483
GGGTATAA | -0.101
CGGTAGCC | -0.0866
CTGACTAA | -0.053
ACATTCTA | 0.208
AACCGTGC | 0.174
CCAATAGA | -0.0589
CGATACCA | -0.0733
ATTGTTGG | 0.117
AGTGGGAA | -0.154
CACTCTGA | -0.0141
CAGTTCGA | -0.0174
GAAGAATC | -0.193
CTGTATCA | 0.0168
CATCTGGA | -0.216
AACGTGCA | 0.136

Sequence | PBM E-score
GATAGCCC | -0.137
CCGGCGTA | -0.0895
GATTTTTA | 0.0384
CCTTCGAG | 0.211
CTGATATA | 0.0216
GCAGATAC | -0.135
GTTCATCA | -0.0735
AGCACTAG | -0.144
AGCTGACT | -0.193
CTGTAGTA | 0.214
CGATCACC | -0.0719
ACGACTCT | -0.175
CTGCGAAA | -0.00218
CTACGAAG | 0.0238
GGGACTTA | -0.122
ACCTACGT | 0.21
CAACCCTG | -0.017
GCGCATGA | -0.254
CATGCACA | 0.148
ATCGCACA | 0.0373
AACGTGGG | 0.0124
ACGGCGCC | -0.0621
GGATTGTA | 0.0846
CAATGTTC | -0.0231
CCTCTCGA | -0.217

Sequence | PBM E-score
ATGCTCTG | -0.203
AGCATCCG | -0.178
GGGGCTAA | -0.181
GGGTGCTA | -0.13
AACCTTAA | 0.16
CAACAAGC | 0.221
ATATAGGC | 0.275
ACCGAAAA | 0.154
CCACGTGA | -0.00983
ACAGCGAG | -0.147
AAAGTCTC | -0.0117
GCAATTGC | 0.125
TGATTTAA | 0.155
CGACAGGA | 0.0979
AAGCTTAG | 0.0543
ACCGATCG | -0.118
AGTCATAT | -0.0173
ACATTAAA | 0.224
CCTGTATA | 0.156
CGTACTCC | -0.114
CCTATTTC | 0.241
TCTGAGCA | 0.0678
ACCCTATC | -0.143
GAGACGTA | 0.0415
ATTTGGAG | -0.167

Sequence | PBM E-score
GCGCGGTA | -0.0893
AGGGATTG | -0.347
GTCAGCCA | -0.319
ACACTACC | -0.089
TACCTCCA | 0.13
AGTGCTAA | -0.304
GGCCGCAA | -0.268
CGAACGTA | 0.0397
AATGTCGT | 0.172
CTGGGTCC | -0.219
CCATGTCC | -0.15
GCGAACCC | -0.014
AGAAAACT | 0.0517
AGAGACAC | -0.0623
ACGTAAAT | 0.272
ACGGACCC | -0.361
ACTTCCTA | -0.09
CGTTAGAA | 0.0129
GCAGCACC | 0.00987
AGCGCGTC | 0.0182
ACACTAAA | 0.157
GTAACTAA | 0.0996
